Measurements from paper PMC4336329 (PLoS ONE, 2015).
Out of some 310,000 compounds screened, about 14,000 (4.5%) showed an effect of 50% or more. The effect is printed as a negative number. The list shows a part of the results.

Molecular target: human ether-à-go-go-related gene (hERG) potassium channel (human, UniProt Q12809)
Experiment: primary screen, population patch clamp on CHO cells stably expressing hERG
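Further: peak tail current of the secondary pulse compared with the same well before compound.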

human ether-à-go-go-related gene (hERG) potassium channel, sequence (Q12809 whole entry, looked up): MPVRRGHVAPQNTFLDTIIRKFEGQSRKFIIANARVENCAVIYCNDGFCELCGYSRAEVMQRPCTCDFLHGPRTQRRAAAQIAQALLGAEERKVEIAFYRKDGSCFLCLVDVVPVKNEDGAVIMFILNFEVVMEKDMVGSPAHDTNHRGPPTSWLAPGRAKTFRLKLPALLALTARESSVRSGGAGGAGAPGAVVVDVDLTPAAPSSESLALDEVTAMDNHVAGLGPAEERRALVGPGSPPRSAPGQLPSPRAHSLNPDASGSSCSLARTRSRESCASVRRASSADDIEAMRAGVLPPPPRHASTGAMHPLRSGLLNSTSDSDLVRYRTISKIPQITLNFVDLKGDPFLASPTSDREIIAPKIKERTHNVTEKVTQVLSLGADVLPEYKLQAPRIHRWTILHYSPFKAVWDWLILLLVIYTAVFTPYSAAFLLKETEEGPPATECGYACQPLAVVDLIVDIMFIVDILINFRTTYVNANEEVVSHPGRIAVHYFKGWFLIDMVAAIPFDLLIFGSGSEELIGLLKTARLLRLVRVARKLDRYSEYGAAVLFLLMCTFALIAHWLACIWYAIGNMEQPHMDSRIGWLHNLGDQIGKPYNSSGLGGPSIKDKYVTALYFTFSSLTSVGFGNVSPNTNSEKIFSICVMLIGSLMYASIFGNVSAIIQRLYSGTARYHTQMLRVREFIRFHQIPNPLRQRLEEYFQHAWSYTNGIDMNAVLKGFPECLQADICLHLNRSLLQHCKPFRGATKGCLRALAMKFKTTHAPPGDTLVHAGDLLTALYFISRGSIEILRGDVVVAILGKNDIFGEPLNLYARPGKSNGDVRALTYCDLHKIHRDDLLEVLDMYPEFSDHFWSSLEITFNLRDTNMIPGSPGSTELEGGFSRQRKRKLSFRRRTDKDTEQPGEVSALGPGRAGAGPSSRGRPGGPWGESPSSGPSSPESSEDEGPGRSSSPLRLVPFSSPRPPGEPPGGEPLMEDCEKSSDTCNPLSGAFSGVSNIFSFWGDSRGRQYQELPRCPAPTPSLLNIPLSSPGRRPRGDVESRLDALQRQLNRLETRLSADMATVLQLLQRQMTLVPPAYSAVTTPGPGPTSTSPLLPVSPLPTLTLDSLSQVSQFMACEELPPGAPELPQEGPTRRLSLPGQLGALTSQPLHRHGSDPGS

SMILES | hERG current change (%, negative = inhibition) at 10uM [%]
CC(C)c1cc(C(=O)Nc2cccc(Cl)c2)no1 | 3.17
O=C(CCNc1n[nH]c(=O)[nH]c1=O)N/N=C/c1ccc(Cl)cc1 | 18.4
CSc1ccccc1C(=O)Nc1ccc(S(=O)(=O)NC2=NCCCCC2)cc1 | 7.13
CCn1c(SCC(=O)N2CCCC2)nnc1-c1ccco1 | 8.9
O=C(O)CCS(=O)(=O)c1ccccc1Cl | 11
CCOc1ccc(S(=O)(=O)N(CC(=O)N2CCc3ccccc32)Cc2ccco2)cc1 | 11
Cc1cc(SCc2ccc(Cl)cc2Cl)nc(=O)[nH]1 | 3.63
COc1ccccc1NC(=O)c1ccc([N+](=O)[O-])cc1[N+](=O)[O-] | -19.6
C/C(=N/NC(=O)c1ccc(-c2ccccc2)cc1)c1cc(O)cc(O)c1 | 12
N=c1c(-c2nc3ccccc3[nH]2)cc(C(=O)c2ccco2)nn1-c1ccccc1 | -59.5
CS(=O)(=O)N1CCCC(C(=O)N2CCN(c3cccc(Cl)c3)CC2)C1 (centres unmarked) | -9.27
O=C(O)c1ccc(C(=O)O)c(C(=O)c2ccccc2)c1 | 1.72
COc1cccc(C(NC(=O)c2ccccc2F)NC(=O)c2ccccc2F)c1 | -11.1
COCCn1c(C)nc2oc3ccc(Br)cc3c(=O)c2c1=O | -42.7
O=C(c1nc2ccccc2s1)N1CCSCC1 | -8.27
CCCCn1c(N)c(N(CCOC)C(=O)c2cc(Cl)nc3ccccc23)c(=O)[nH]c1=O | 6.3
CN1CCN(CCCNC(=O)c2ccc3c(c2)N(Cc2ccc(F)cc2)CCS3)CC1 | -26.7
Cc1nc2ccccc2n1CC(O)COc1ccccc1Cl (centres unmarked) | -15
CN1CC(=O)N2C(c3cccc([N+](=O)[O-])c3)c3[nH]c4ccccc4c3C[C@H]2C1=O (some centres unmarked) | 11.4
Br.CCCn1c(=N)n(CC(=O)OCC)c2ccccc21 | -4.66
COCCN1CCc2c(C)nc3c(-c4ccc(OC)c(OC)c4)cnn3c21 | -4.31
CCOC(=O)N1CCN(C(=O)COC(=O)Cc2ccc(Cl)cc2)CC1 | -14.3
CC(C)C(=O)Nc1cccc(NC(=S)NC(=O)c2ccc3c(c2)OCO3)c1 | 17.4

SMILES | hERG current change (%, negative = inhibition) at 10uM [%]
O=C(NC(=S)NC1C2CC3CC(C2)CC1C3)c1ccccc1 (centres unmarked) | 5.43
N#Cc1ccc(COC(=O)CCc2c[nH]c3ccccc23)cc1 | -20.5
COc1ccc(C(=O)/C=C2/C(=O)Nc3ccccc32)c(OC)c1 | 12.7
N#Cc1cc(-c2ccccc2)nc(N2CCNCC2)n1 | -11.3
COc1cc(/C=C(\C#N)c2nc3ccccc3o2)ccc1O | -4.04
Cc1csc(NC(=O)Cn2cnnn2)n1 | 9.19
CN(C)C(CNC(=S)Nc1ccccc1Cl)c1cccnc1 (centres unmarked) | 3.25
O=C1c2ccccc2CN2C(=O)c3ccccc3CN12 | 29.6
Cc1ccc(C(=O)C[n+]2cc(Br)cc(Br)c2)cc1[N+](=O)[O-].[Br-] | -23.2
CCOC1(OCC)C(c2ccc(N)cc2)C(C#N)(C#N)C1(OCC)OCC (centres unmarked) | 16.6
O=C1/C(=C/c2ccc(N3CCOCC3)o2)SC(=Nc2ccccc2)N1CCc1c[nH]c2ccccc12 | 3.77
COC(=O)c1ccsc1NC(=O)C1=COCCO1 | 7.95
COc1cccc(C(=O)N2CCC(n3nccc3NC(=O)C3CCOC3)CC2)c1 (centres unmarked) | -13
c1coc(CNC2CCCCCCC2)c1 | 10.1
Cc1cc(NC(=O)c2cccc(N3C(=O)CCC3=O)c2)no1 | -23.9
O=C(Oc1coc(CSc2ncccn2)cc1=O)c1ccc(Br)o1 | -13.8
CC(C)CSc1nc2ccccc2n1CC(N)=O | 5.81
Cc1c(-n2cc(C(=O)c3cc(F)ccc3O)cc(C#N)c2=O)c(=O)n(-c2ccccc2)n1C | 13.4
CC(=O)Nc1nnc(-c2ccco2)o1 | 29
O=C(COc1ccc2c(c1)OCO2)Nc1ccccc1C(F)(F)F | -11.9
COc1cc(NC(=O)c2cc(-c3ccc4c(c3)OCO4)on2)cc(OC)c1OC | 1.46
CCC(=O)Nc1cc(C(=O)OCC(=O)c2ccccc2)ccc1C | 2.56
C=CCOc1ccccc1CN1CCC(CO)(CCOc2ccccc2)CC1 | -81.9

SMILES | hERG current change (%, negative = inhibition) at 10uM [%]
Cc1ccc2c(c1)nc(NCCCO)n2C | -3.54
COc1ccc(NC(=O)CSc2ccc(-c3ccco3)nn2)cc1OC | -12.2
Nc1nncn1C(=O)CCc1ccccc1 | -3.41
O=c1c2c3c(sc2nc(N2CCNCC2)n1-c1cccc(Cl)c1)CCCCC3 | -37.9
Cc1cc(Br)ccc1NC(=O)C(C)c1ccc([N+](=O)[O-])cc1 (centres unmarked) | -70.7
CCC(OC(=O)c1cccs1)C(=O)NCc1ccco1 (centres unmarked) | 15.9
CCOC(=O)Cc1csc(NC(=O)c2cc(-c3ccncc3)nc3ccccc23)n1 | 11.9
CCOCCCNC(=O)C(c1ccc(C)cc1)N1CCOCC1 (centres unmarked) | 4.95
Cn1nnnc1SCC(=O)NCCc1ccc(Cl)cc1 | -0.328
CCN(CC(=O)Nc1ccc2c(c1)OCCO2)C(=O)C1CCCCC1 | -2.6
Cc1ccccc1NC(=S)N(CCc1c(C)[nH]c2ccc(F)cc12)Cc1cccnc1 | 24.2
Br.Nc1ccc(OCC(O)C[n+]2ccc(CCS(=O)(=O)[O-])cc2)cc1 (centres unmarked) | 18.4
COc1cc(-c2nnc(NC(=O)CCS(=O)(=O)c3ccccc3)o2)cc(OC)c1OC | 8.33
Cc1ccc2cc(C#N)c(N3CCCN(C(=O)C4CCCO4)CC3)nc2c1 (centres unmarked) | -36
C[C@]12C[C@H](O)[C@H]3[C@@H](CCC4=CC(=O)CC[C@@]43C)[C@@H]1CC[C@@H]2C(=O)CO | 0.529
COc1ccc(Nc2ncnc3sc(C)cc23)c(OC)c1.Cl | 7.32
CCCc1cc2c(=O)c(-c3ccccn3)c(C)oc2cc1O | 0.616
CCn1c(COc2ccccc2OC)nnc1SCC(=O)NC1CCCC1 | -4.79
CCOC(=O)CCC(=O)N1CCOCCN(C(=O)CCC(=O)OCC)CCOCC1 | 14.3
CC(C)(C)n1cnc2cc(NS(=O)(=O)c3ccccc3)ccc21 | -18.6
CCOc1ccccc1NC(=O)C(c1ccccc1)N1CCN(C(=O)c2ccco2)CC1 (centres unmarked) | -57.7
CC(C)C(c1nnnn1C1CCCCC1)N1CCOCC1 (centres unmarked) | 1.7
COc1ccc(-c2cc(C(F)(F)F)nc(SCC(=O)N3CCOCC3)n2)cc1OC | -14.5

SMILES | hERG current change (%, negative = inhibition) at 10uM [%]
COc1ccc(CCC(=O)NNC(=O)c2cc(Cl)ccc2OC)cc1OC | 0.534
COCC(COS(N)(=O)=O)C(C)C (centres unmarked) | 9.44
O=C(Nc1ccc(Cl)cc1C(=O)NCC1CCCO1)c1ccc(Cl)cc1Cl (centres unmarked) | -10.2
Cc1cccc(C(=O)NCC(=O)NNC(=O)c2ccccc2O)c1 | -1.97
COc1cc(/C=N/NC2=NCCCCC2)ccc1O.Cl | 4.28
O=C(NCCCCNC(=O)c1ccccc1Cl)c1ccccc1Cl | 10.4
CCC(C)Sc1cccc(-c2nc3ccc(Cl)cn3c2NCc2ccccc2)c1.O=C(O)C(F)(F)F (centres unmarked) | 8.38
CCn1c(SCC(=O)NCC2CCCO2)nc2c([nH]c3ccccc32)c1=O (centres unmarked) | -1.03
O=C(O)CC1SC(=Nc2cccc(C(F)(F)F)c2)NC1=O (centres unmarked) | 5.13
O=C(COC(=O)c1cccs1)c1ccccc1 | 5.96
Cc1ccccc1NCCC(=O)Nc1ccc(Cl)cc1 | -9.8
COC(=O)[C@H](CCSC)NC(=O)N1CCC(C)CC1 | -8.94
COc1ccc(CNC(=O)c2cnc3cc(C)ccn3c2=O)cc1 | -8.79
O=C(CC1NCCNC1=O)Nc1ccc(Oc2ccccc2)cc1 (centres unmarked) | 25.6
CC(C)CCNC(=O)C1CCN(S(=O)(=O)c2ccc(-n3cnnn3)cc2)CC1 | -37.6
COc1cc(N(C(=O)Cc2cccs2)C(C(=O)NC2CCCCC2)c2cccc(OC)c2OC)ccc1-n1cnnn1 (centres unmarked) | -8.38
CCOC(=O)C1=C(Cn2cnc3ccccc32)NC(=O)NC1c1ccc(OC)cc1 (centres unmarked) | -19.7
Cl.OC(CNCC#Cc1ccccc1)c1ccccc1 (centres unmarked) | -0.364
Cc1cc(=O)[nH]c(-n2[nH]c(C)cc2=O)n1 | -1.59
CCN1CCc2nc(NC(=O)c3ccc(S(=O)(=O)N(C)C)cc3)sc2C1 | 22.4
Cc1ccc(-c2nnc(-c3ccccc3)c(-c3ccccc3)n2)cc1 | 4.51
CC(C)(C)OC(=O)N1CCC(CNC(=O)c2cccs2)CC1 | 10.9
CCN1C(=O)N[C@@H](c2cccc(C(F)(F)F)c2)[C@@H](C(=O)OC)[C@H]1C | -19
